Data from PubChem BioAssay AID1347073 (National Center for Advancing Translational Sciences (NCATS), 2019).
The campaign covered roughly 45,000 compounds. About 200 (0.44%) were called active. Another 7% or so got no clear call; they are omitted. Calls come from the whole dose curve; as a rule, active = well fitted activation curve with a large enough effect; inconclusive = small, poorly fitted or top-dose-only effect; inactive = no such curve, though single readings can be large or run the other way. This is one part of the list.

Assay: qHTS of TDP-43 Inhibitors: NCGC Sytravon Library Screen; note: 0% is about no effect; nearly all actives have a fitted effect of over 55% in size
Conditions: yeast TDP-43 toxicity rescue, BacTiter-Glo growth, 24 h; series mostly up to 46.1 µM; growth rescue (activation): at the top concentration
Outline: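 TDP-43-expressing yeast, pregrown in raffinose, seeded at OD600 0.02 in galactose medium with compound for 24 hr at 30 deg C. Growth read by BacTiter-Glo luminescence, so rescue of toxicity appears as activation.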
In the case of `O=C1c2cccc3cc([N+](=O)[O-])cc(c23)C(=O)N1/N=C/c1ccc(O)cc1O`, the “growth rescue (activation)” value is reported as inactive: 18.1%. With `O=C(Nc1ccc(F)cc1)C1(S(=O)(=O)c2ccc(Cl)cc2)CC1` the “growth rescue (activation)” value was inactive: 12.9%. In the case of `O=C(c1cccc(C(F)(F)F)c1)C1CCCN(C(=O)CN2CCCC2=O)C1` (stereo not given), the “growth rescue (activation)” value is reported as inactive: 4.32%. With `Cc1cnn(Cc2cccnc2)c1N` the “growth rescue (activation)” value was inactive: 5.86%. In the case of `CCCCNC(=O)COC(=O)c1ccc(Cl)c(S(N)(=O)=O)c1`, the “growth rescue (activation)” value is reported as inactive: -15.3%. With `O=C(N/N=C/c1cc(Br)c(Br)o1)c1cccnc1` the “growth rescue (activation)” value was inactive: 1.74%. In the case of `NS(=O)(=O)c1ccc(N/N=C/c2cn(-c3ccccc3)nc2-c2cccs2)cc1`, the “growth rescue (activation)” value is reported as inactive: -32.7%. With `COC(=O)C(C)Sc1nc2c(c(=O)[nH]c(=O)n2C)n1CCCc1ccccc1` (stereo not given) the “growth rescue (activation)” value was inactive: 13%. In the case of `COc1ccc(NS(=O)(=O)c2cc(NC(=O)Cc3cccs3)ccc2C)cc1`, the “growth rescue (activation)” value is reported as inactive: 5.74%. With `CC(C)Nc1ncnc2c1ncn2[C@H]1CN(Cc2ccc(-c3ccccc3)cc2)C[C@@H](CO)O1` the “growth rescue (activation)” value was inactive: 20.6%. With `Cc1cc2c(o1)CC(C)(C)CC2=O` the “growth rescue (activation)” value was inactive: 6.8%. For `CC1(CCc2ccccc2)NC(=O)N(CC(=O)Nc2ccccc2)C1=O` (stereo not given), the “growth rescue (activation)” value was inactive: 9.51%. With `Cc1ccnc(NC(=O)c2sc3ccccc3c2Cl)c1` the “growth rescue (activation)” value was inactive: 5.44%. In the case of `CCc1ccc(CN(C)C(C)C(=O)NCc2ccccc2)cc1` (stereo not given), the “growth rescue (activation)” value is reported as inactive: 0.392%. For `CCN(CC)C(=O)Cn1cnc2sc(C(=O)N3CCN(Cc4ccc5c(c4)OCO5)CC3)c(C)c2c1=O`, the “growth rescue (activation)” value was inactive: -25%. For `COc1ccccc1NC(=O)C1CCN(C(=O)c2ccco2)CC1`, the “growth rescue (activation)” value was inactive: 15.5%. In the case of `Cc1cc(C(=O)Oc2cccnc2)ccc1[N+](=O)[O-]`, the “growth rescue (activation)” value is reported as inactive: 1.34%. With `COc1ccccc1OCCCOc1cccc(/C=C2\SC(=O)NC2=O)c1` the “growth rescue (activation)” value was inactive: 4.86%. For `O=C1CN(S(=O)(=O)c2cccc(Cl)c2Cl)c2ccccc2N1`, the “growth rescue (activation)” value was inactive: -15.5%. For `COc1cc(CCC(=O)OCC(=O)Nc2c(Cl)cccc2Cl)cc(OC)c1OC`, the “growth rescue (activation)” value was inactive: -0.975%. For `O=[N+]([O-])c1cc(Br)c(O)c(/C=N/Nc2nc3ccccc3s2)c1`, the “growth rescue (activation)” value was inactive: 9.45%. In the case of `CC1(Oc2ccccc2-c2ccno2)CCN(Cc2csc3ccccc23)C1` (stereo not given), the “growth rescue (activation)” value is reported as inactive: 2.49%. With `CC1(Cc2c(Cl)cccc2Cl)C(=O)Nc2cc(-c3ccccc3Cl)ccc21` (stereo not given) the “growth rescue (activation)” value was inactive: -0.556%. With `CN(c1ncnc(N)c1[N+](=O)[O-])C1CCS(=O)(=O)C1` (stereo not given) the “growth rescue (activation)” value was inactive: 9.1%. In the case of `O=C(COC(=O)c1cccnc1Cl)NC1CCCCCC1`, the “growth rescue (activation)” value is reported as inactive: 3.07%. For `COc1ccc2[nH]c(=O)c(CN(Cc3ccc(C)cc3)Cc3nnnn3CC3CCCO3)cc2c1` (stereo not given), the “growth rescue (activation)” value was inactive: 2.05%. With `Cc1nc2ccccn2c1C(=O)NN=C1C2CC3CC(C2)CC1C3` the “growth rescue (activation)” value was inactive: 18.6%. In the case of `CC(Sc1ccccc1)C(=O)Nc1ccccc1C(=O)N1CCOCC1` (stereo not given), the “growth rescue (activation)” value is reported as inactive: -26.6%. In the case of `O=C(Nc1ncc2c(n1)CC(c1ccco1)CC2=O)c1ccco1` (stereo not given), the “growth rescue (activation)” value is reported as inactive: 9.91%. With `COc1ccc2cc(-c3cc(C(=O)OCC(=O)NC4CCS(=O)(=O)C4)c4ccccc4n3)ccc2c1` (stereo not given) the “growth rescue (activation)” value was inactive: 10.8%.
